{"source": "PubChem BioAssay AID686978", "about": "(National Center for Advancing Translational Sciences (NCATS), 2013)", "note": "Values joined by “and” are separate entries in the source; they are usually repeats but may differ in a detail not shown here. Identical values can stand only once. Hit rate of the full screen: of about 420,000 compounds, about 64,000 (15%) were called active. Inconclusive means that the source gave no clear call. Such entries were picked first, then a sample of the others. Calls come from the whole dose curve; as a rule, active = well fitted inhibition curve with a large enough effect; inconclusive = small, poorly fitted or top-dose-only effect; inactive = flat fitted curve, though single readings scatter. A potency beside an inconclusive call is a rough fit, not a confirmed value. % is set by controls: 0 for no effect and ±100 for the full control effect; potency is the fitted concentration of half-maximal effect; tags give direction and shape of the fitted curve."}
{"assay": "qHTS for Inhibitors of human tyrosyl-DNA phosphodiesterase 1 (TDP1): qHTS in cells in absence of CPT; note: nearly all actives have a fitted effect of over 55% in size", "conditions": "DT40 Tdp1-/- hTDP1 cells, no CPT, ATP luminescence, 48 h; activity change, negative = growth inhibition: at 46.2 µM (top of the series)", "outline": "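Camptothecin absent (DMSO only). Human TDP1-complemented DT40 knockout cells, 400 cells/well, 37 °C for minimum 48 hr; ATP measured via CellTiter-Glo, 30 min dark incubation, luminescence.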"}
{"smiles": "CCC1CSC(Nc2ccc(C(=O)/C=C/c3cccc(C)c3)cc2)=N1", "note": "(centres undefined)", "Potency": "active: 14.6 µM"}
{"smiles": "C[C@@H]1CN([C@@H](C)CO)C(=O)CCCn2nncc2CO[C@H]1CN(C)S(=O)(=O)c1cn(C)cn1", "activity change, negative = growth inhibition": "inactive: 10.8%"}
{"smiles": "CCOC(=O)C1=CCN(S(=O)(=O)c2ccccc2C)C1c1ccc(C)cc1", "note": "(centres undefined)", "Potency": "inconclusive: 29.1 µM [inhibitor, single point]"}
{"smiles": "COc1ccc(N2CCN(C(=O)c3c4c(nc5ccccc35)C(=O)N(C3CCCCC3)C4)CC2)cc1", "Potency": "active: 16.4 µM"}
{"smiles": "Cc1cc(C)c(S(=O)(=O)N(CC(=O)NCc2cccnc2)C2CCCCC2)c(C)c1", "Potency": "inconclusive: 29.1 µM [inhibitor, single point]"}
{"smiles": "CCOc1ccc(NC(=O)CSC2=NN3CCCC(=O)N=C3S2)cc1", "Potency": "inconclusive: 29.1 µM [inhibitor, single point]"}
{"smiles": "Cc1ccc(SCC(=O)N(C)CC(=O)Nc2cccc(F)c2)cc1", "Potency": "inconclusive: 23.1 µM [inhibitor, single point]"}
{"smiles": "O=C(OCC(=O)N1CCOCC1)c1ccccc1OCc1ccc(Cl)cc1", "Potency": "inconclusive: 29.1 µM [inhibitor, single point]"}
{"smiles": "Cc1cccc2cc(C3CC(c4cccs4)=NN3S(C)(=O)=O)c(Cl)nc12", "note": "(centres undefined)", "Potency": "inconclusive: 29.1 µM [inhibitor, single point]"}
{"smiles": "Cc1ccc(NC(=O)CN(C)C(=O)c2ccccc2OCc2c(C)noc2C)cc1", "activity change, negative = growth inhibition": "inactive: -13.7%"}
{"smiles": "CC(=O)N1CCc2cc(S(=O)(=O)NCCC(=O)NCCc3ccc(C)cc3)ccc21", "Potency": "active: 16.4 µM"}
{"smiles": "COc1ccc(/C=N\\NC(=O)/C(=C\\Nc2nccc(C)n2)NC(=O)c2ccccc2)cc1", "activity change, negative = growth inhibition": "inconclusive: -33.5% [inhibitor]"}
{"smiles": "CC[C@@]12C(=O)N(c3cccc(F)c3)C(=O)N1[C@H](c1ccc(Cl)cc1)[C@@H]1C(=O)N(C3CCCCC3)C(=O)[C@@H]12", "Potency": "inconclusive: 20.6 µM [inhibitor, single point]"}
{"smiles": "COc1ccc(C2=Nc3ccccc3N(C(=O)c3ccc4c(c3)OCO4)C2C(=O)Nc2c(C)cccc2C)cc1", "note": "(centres undefined)", "Potency": "inconclusive: 18.4 µM [inhibitor, partial curve]"}
{"smiles": "CCOc1ccccc1OCCCNCc1ccco1", "Potency": "inconclusive: 29.1 µM [inhibitor, single point]"}
{"smiles": "CC(C)c1ccc(/C=C/C(=O)NC2CCCCC2)cc1", "Potency": "inconclusive: 29.1 µM [inhibitor, single point]"}
{"smiles": "O=C(O)Cn1c(-c2ccccc2)nc2ccccc21", "activity change, negative = growth inhibition": "inactive: -9.87%"}
{"smiles": "O=C(CCl)Nc1ccc(N=Nc2ccccc2)cc1", "Potency": "inconclusive: 5.8 µM [inhibitor, full curve, poor fit]"}
{"smiles": "O=C(O)c1ccccc1C(=O)Nc1ccc(S(=O)(=O)NC2CCCCC2)cc1", "activity change, negative = growth inhibition": "inactive: -4.39%"}
{"smiles": "O=C(O)CCC(=O)N1CCC(n2nnc3cc(C(F)(F)F)ccc32)CC1", "activity change, negative = growth inhibition": "inactive: 2.46%"}
{"smiles": "COc1cc(-c2cc(=O)c3ccccc3o2)ccc1O", "Potency": "inconclusive: 18.8 µM [inhibitor, partial curve, poor fit] and inconclusive: 16.4 µM [inhibitor, single point]"}
{"smiles": "CSc1ccc(C2c3[nH]c4ccccc4c3CCN2C(=O)CCC2CCCC2)cc1", "note": "(centres undefined)", "Potency": "inconclusive: 16.4 µM [inhibitor, partial curve]"}
{"smiles": "CCN(CC)CCN1C(=O)C(O)=C(C(C)=O)C1c1ccccc1[N+](=O)[O-]", "note": "(centres undefined)", "Potency": "inconclusive: 18.4 µM [inhibitor, partial curve]"}
{"smiles": "CC(C)(C)CC(C)(C)NC(=S)Nc1ccc2nc(-c3ccccn3)c(-c3ccccn3)nc2c1", "Potency": "inconclusive: 29.1 µM [inhibitor, single point]"}
{"smiles": "CC(C)(C)OC(=O)N1CCCC(C(=O)Nc2cccc(C(=O)NCCCc3ccccc3)c2)C1", "note": "(centres undefined)", "Potency": "inconclusive: 18.4 µM [inhibitor, single point]"}
{"smiles": "Cc1ccc(C2c3c(-c4ccccc4O)n[nH]c3C(=O)N2Cc2ccncc2)cc1", "note": "(centres undefined)", "Potency": "active: 23.1 µM"}
{"smiles": "NC(CCc1ccccc1)c1csc(Nc2nncc3ccccc23)n1", "note": "(centres undefined)", "Potency": "active: 20.6 µM"}
{"smiles": "COc1ccc(-c2nc3ccccc3o2)cc1NC(=O)c1ccc(OCC(C)C)cc1", "Potency": "inconclusive: 18.4 µM [inhibitor, single point]"}
{"smiles": "CCOC(=O)c1ccc(NC(=O)CS(=O)(=O)c2cn(CC)c3ccccc23)cc1", "Potency": "inconclusive: 23.1 µM [inhibitor, single point]"}
{"smiles": "O=C(CNc1ccccc1)Nc1cccc2ccccc12", "activity change, negative = growth inhibition": "inactive: -26.7%"}
{"smiles": "Fc1ccc(CNC(=S)NC2CCCC2)cc1", "Potency": "inconclusive: 18.4 µM [inhibitor, single point]"}
{"smiles": "CC1C(=O)OC2C1CCC1(C)CCC(=O)C(C)C21", "note": "(centres undefined)", "Potency": "inconclusive: 10.3 µM [inhibitor, partial curve]"}
{"smiles": "CCOc1ccc(NS(=O)(=O)c2ccc3[nH]cc(C(=O)N(C)C4CCCCC4)c(=O)c3c2)cc1", "activity change, negative = growth inhibition": "inactive: -7.55%"}
{"smiles": "CCCn1c(=S)[nH]c2cc(C(=O)N3CCc4ccccc4C3)ccc2c1=O", "activity change, negative = growth inhibition": "inactive: -11.2%"}
{"smiles": "CCOC(=O)c1c(C)[nH]c(C(=O)N2CCN(c3ccc(OC)cc3)CC2)c1C", "Potency": "inconclusive: 29.1 µM [inhibitor, single point]"}
{"smiles": "COc1cccc(C(=O)Nc2ccc(NC(=O)C3C4C=CC(C4)C3C(=O)O)cc2)c1", "note": "(centres undefined)", "Potency": "inconclusive: 29.1 µM [inhibitor, single point]"}
{"smiles": "CCOC(=O)c1c(-c2ccc(C)cc2C)csc1NC(=O)c1ccccc1Cl", "Potency": "inconclusive: 29.1 µM [inhibitor, single point]"}
{"smiles": "O=C(NCCN1CCOCC1)c1ccc2c(c1)N(Cc1ccccc1F)C(=O)CS2", "Potency": "inconclusive: 11.6 µM [inhibitor, partial curve, poor fit]"}
{"smiles": "COc1ccc(CCN(C)C(=O)c2cc(=O)c3ccccc3o2)cc1OC", "activity change, negative = growth inhibition": "inactive: -21%"}
{"smiles": "CCn1c(O)c(N=Nc2ccc(Cl)c(C(=O)O)c2)c2ccccc21", "Potency": "inconclusive: 23.1 µM [inhibitor, single point]"}
{"smiles": "Cc1sc2ncnc(N3CCC(C(=O)NNC(=O)c4ccc(F)cc4)CC3)c2c1C", "Potency": "active: 16.4 µM"}
{"smiles": "O=C(NCCCN1CCCCC1)c1ccc2c(c1)sc1nc(-c3ccc(F)cc3)cn12", "Potency": "active: 2.31 µM"}
{"smiles": "COc1ccccc1/C(O)=C(\\C#N)c1nc2ccccc2[nH]1", "activity change, negative = growth inhibition": "inactive: -27.9%"}
{"smiles": "OC(COc1ccc2ccccc2c1Br)Cn1cnc(-c2ccccc2)c1", "note": "(centres undefined)", "Potency": "inconclusive: 20.6 µM [inhibitor, single point]"}
{"smiles": "CCc1nc2c(OCCn3cccc3)cccn2c1N(C)C(=O)c1ccccc1F", "Potency": "inconclusive: 29.1 µM [inhibitor, single point]"}
{"smiles": "COc1ccc(CNC(=O)[C@@H](NC(=O)C2CCN(C(=O)[C@@H](N)Cc3ccccc3)CC2)C(C)C)cc1", "activity change, negative = growth inhibition": "inactive: -12.9%"}
{"smiles": "Clc1ccc(OCc2nc(-c3ccccn3)n[nH]2)cc1", "Potency": "inconclusive: 16.4 µM [inhibitor, single point]"}
{"smiles": "CC12CC3CC(C)(C1)CC(C(O)CN1CCOCC1)(C3)C2", "note": "(centres undefined)", "activity change, negative = growth inhibition": "inactive: 2.14%"}
{"smiles": "O=C(Nc1cc(S(=O)(=O)N2CCOCC2)ccc1N1CCCC1)c1cc(F)c(F)cc1Cl", "activity change, negative = growth inhibition": "inactive: -13%"}
{"smiles": "O=C(C[C@H]1C/C=C\\CC[C@@H](Cc2ccc(F)cc2)C(=O)OC[C@H]2CCCN2C1=O)N[C@@H](CO)Cc1ccccc1", "Potency": "active: 14.6 µM"}
{"smiles": "Fc1ccc(-c2ccc(CNCc3ccccn3)o2)cc1Cl", "Potency": "active: 20.6 µM"}
{"smiles": "Cc1cccc2cc(C#N)c(SCCN3CCCCC3)nc12", "Potency": "inconclusive: 29.1 µM [inhibitor, single point]"}
{"smiles": "OCC[C@H]1C[C@H](O)[C@@H](O)[C@@]2(CCc3ccccc3O2)O1", "activity change, negative = growth inhibition": "inactive: -9.3%"}
{"smiles": "CC1(Cc2cccc(C(F)(F)F)c2)C(=O)Nc2c(Cl)cccc21", "note": "(centres undefined)", "Potency": "inconclusive: 29.1 µM [inhibitor, single point]"}
{"smiles": "CCN(CC(=O)Nc1ccccc1OC)C(=O)COc1ccc2ccccc2c1", "Potency": "inconclusive: 29.1 µM [inhibitor, single point]"}
{"smiles": "Cc1cc(C)c2c(=O)n3c(nc2c1)C(Cc1ccccc1)NC(=O)c1cccnc1-3", "note": "(centres undefined)", "Potency": "active: 20.6 µM"}
{"smiles": "CCOc1ccc(N=C/C=C/c2ccccc2)c(O)c1", "Potency": "active: 18.4 µM"}
{"smiles": "O=C(Nc1ccccc1)c1ccccc1NS(=O)(=O)c1ccc(Cl)s1", "Potency": "inconclusive: 29.1 µM [inhibitor, single point]"}
{"smiles": "NC(=O)Cn1c(=O)n(CCCCCC(=O)NCc2ccccc2Cl)c(=O)c2sccc21", "Potency": "inconclusive: 10.3 µM [inhibitor, partial curve, poor fit]"}
{"smiles": "C[N+](C)(C)c1ccc(/C=N/Nc2nc(Cl)c(C#N)c(Cl)c2Cl)cc1", "Potency": "active: 23.1 µM"}
{"smiles": "CCOc1cc(/C=C/c2cc(C(F)(F)F)[nH]c(=O)n2)ccc1O", "Potency": "inconclusive: 23.1 µM [inhibitor, single point]"}
{"smiles": "COCCNC(=O)Cn1cc2c(n1)-c1c(oc(C(=O)N3CCCC3)c1C)CC2", "activity change, negative = growth inhibition": "inactive: -1.88%"}
{"smiles": "CC(C)C(=O)NC(c1cccs1)c1cc([N+](=O)[O-])c2cccnc2c1O", "note": "(centres undefined)", "Potency": "inconclusive: 20.6 µM [inhibitor, single point]"}
{"smiles": "CC1CCCN(S(=O)(=O)c2ccc([N+](=O)[O-])cc2)C1", "note": "(centres undefined)", "activity change, negative = growth inhibition": "inactive: -12.6%"}
{"smiles": "COc1ccccc1Nc1nc(NCC(C)C)nc(N)c1[N+](=O)[O-]", "Potency": "active: 25.9 µM"}
{"smiles": "COc1cccc(CNS(=O)(=O)c2ccc(S(=O)(=O)NC3CC3)cc2)c1", "Potency": "inconclusive: 6.51 µM [inhibitor, partial curve]"}
{"smiles": "CCOc1cccc(C(=O)Nc2cccc(-c3nc4ncccc4o3)c2C)c1", "activity change, negative = growth inhibition": "inconclusive: -34.4% [inhibitor]"}
{"smiles": "O=C1CCCc2ccccc2N1Cc1ccc(Cl)cc1", "Potency": "inconclusive: 16.4 µM [inhibitor, single point]"}
{"smiles": "C=CCn1c(SCC(=O)Nc2ccc(F)cc2)nc2ccccc2c1=O", "Potency": "inconclusive: 29.1 µM [inhibitor, single point]"}
